Assay results published in ChEMBL document CHEMBL1157539, “Thousands of chemical starting points for antimalarial lead identification” (Nature, 2010).
Whole data set: some 13,000 compounds, median “IFI” near 4, cut for the highest 2% near 17. The list shows a part of the results.

experiment: GSK_TCMDC: Inhibition Frequency Index (IFI). The number of non-kinase HTS assays where a compound showed > 50 % inhibition, expressed as a percentage of the number of such assays in which the compound was tested (-0 is zero); format: functional

| SMILES | IFI [%] |
| --- | --- |
| Nc1c2c(nc3cc(NC(=O)c4ccc([N+](=O)[O-])cc4)ccc13)CCCC2 | 0 |
| N#Cc1ccc2[nH]c(-c3ccccc3)nc2c1 | -0 |
| COc1ccc2nc3cc(Cl)ccc3c(Nc3ccc(Sc4ccc(Nc5c6ccc(Cl)cc6nc6ccc(OC)cc56)cc4)cc3)c2c1 | 2.19 |
| CC(C)Nc1nc(NCCc2c[nH]cn2)nc(NCc2ccc(Cl)c(Cl)c2)n1 | 1.46 |
| Cc1ccc(-c2nnc3c4ccccc4c(C)nn23)cc1S(=O)(=O)N1CCN(CCO)CC1 | 1.69 |
| CC(C)(CN1CCCC1)CN(Cc1ccc(-c2ccc(C(F)(F)F)cc2)cc1)C(=O)Cn1c(CCc2cccc(F)c2F)nc(=O)c2ccccc21 | 7.04 |
| O=C(N[C@@H](CC1CCCCC1)C(=O)NC1CCCc2ccccc21)c1ccc(O)c(-c2ccc(Cl)c(Cl)c2)c1 (some centres not stated) | 2.22 |
| COc1cc(C(=O)NC2CCN(Cc3ccccc3)CC2)ccc1-c1nc2cc(Cl)c(Cl)cc2[nH]1 | -0 |
| O=C(/C=C/c1ccsc1)N1CCC(CCN2CCC(c3c[nH]c4ccccc34)CC2)CC1 | 3.79 |
| CN(C)Cc1cccc2nc(-c3csc(Cc4cc(Cl)ccc4OCc4ccccc4)n3)[nH]c12 | 10.2 |
| N#Cc1ccc(N/C(=N\c2ccc(-c3ccccc3)cc2)NCCc2c[nH]c3ccccc23)c(O)c1 | 0.74 |
| COc1ccc(CCNCCCCCCNCCc2ccc(Cl)cc2)c(Cl)c1OC | 10.4 |
| CN(C)CCOc1ccc2c(c1)OC(C)(C)C=C2c1cccc2ccccc12 | 2.19 |
| O=C(NC1CC1)c1ccc(N2CCC(c3ccccc3)CC2)nc1 | -0 |
| FC(F)(F)c1ccc2[nH]ccc(=NN=Cc3cccc(Cl)c3)c2c1 | 0 |
| c1ccc2[nH]c(-c3ccc(-c4ccc(CN5CCC(N6CCCCC6)CC5)cc4)s3)nc2c1 | 5.36 |
| CCOc1c(OC)ccc2c1CCN(CCN1CCC(CNC(=O)c3ccc(-c4ccc(C(F)(F)F)cc4)cc3)CC1)C2 | 11.7 |
| COc1cc2nc(SCCCC#N)n(C3CCCCCC3)c(=N)c2cc1OC | 3.6 |
| Cc1nccn1Cc1cc(C(C)(C)C)c(O)c(C(C)(C)C)c1 | 1.48 |
| COc1ccc(CN2CCC(Oc3cccc(NC(=O)c4ccc(C(F)(F)F)cc4)c3)CC2)cc1 | 10.4 |
| CN(C)c1ccc(CN2CCC(CNC(=O)c3cc(-c4cccc(F)c4)cs3)C2)cc1 (configuration not stated) | 6.12 |
| O=[N+]([O-])c1ccc(N/C(=N\c2ccccc2Br)NC2CCCc3ccccc32)c(O)c1 (configuration not stated) | 4.17 |

| SMILES | IFI [%] |
| --- | --- |
| COc1ccc2ncc(F)c([C@@H](O)CN3CCC(NCc4cc5c(cn4)OCCO5)CC3)c2c1 | 0.93 |
| CCCC1N=C(N)N=C(N)N1c1ccc(CC)cc1 (configuration not stated) | 1.44 |
| O=C(C=CC(=O)N1CCCCC1)NCc1ccccc1 | -0 |
| Cc1cc(N/N=C/c2cccc([N+](=O)[O-])c2)c2cc(F)ccc2n1 | 0 |
| CCCC(CNCc1ccccc1)CNc1cc(=O)c2ccccc2[nH]1 (configuration not stated) | 3.62 |
| Cc1[nH]c2ccccc2c1C(=O)C(C)Sc1nnc(-c2ccccc2F)o1 (configuration not stated) | 1.64 |
| CCCc1ccccc1OCC(O)CN(C1CCCC1)C1CCCC1 (configuration not stated) | 8.28 |
| CN(c1ccccc1C(=O)Nc1cc(Cl)ccc1Oc1ccccc1)S(=O)(=O)c1ccccc1 | 1.87 |
| CN(C)Cc1c(O)ccc2[nH]c(-c3cccc(F)c3)nc12 | 1.2 |
| CCN(CC)CCN(CCCc1ccc(-c2ccc(C(F)(F)F)cc2)cc1)C(=O)Cn1c(CCc2cccc(F)c2F)nc(=O)c2ccccc21 | 7.91 |
| CN(C)c1ccc(NC2=NC(N)=NC(C)(C)N2)cc1 | 1.82 |
| COc1ccc2nc3cc(Cl)ccc3c(NCCNCC(O)CO)c2n1 (configuration not stated) | 3.4 |
| Cc1cc(CN2CCCN(c3ccc4c(c3)CCN(Cc3ccc(-c5ncc[nH]5)cc3)CC4)CC2)n(C)n1 | 1.72 |
| O=[N+]([O-])c1cccc(CNC2CCN(Cc3ccc(Cl)c(Cl)c3)CC2)c1 | 2.88 |
| CCOC(=O)CNC(=O)N(CCN(Cc1ccccc1)C(=O)NCC(=O)OCC)Cc1ccccc1 | 0.73 |
| N#Cc1ccc2c(c1)CCN(CCC1CCC(NC(=O)/C=C/c3c[nH]c4ccc(F)cc34)CC1)CC2 (configuration not stated) | 2.26 |
| CC(C)c1ccc(C2CCN(CCCCNC(=O)c3ccc(NC(=O)c4ccc(C(F)(F)F)cc4)cc3)CC2)c(O)c1 | 10.3 |
| Cc1cccc(CCNC(=O)c2cc(Br)cc(N3CCN(c4ccncc4)CC3)c2)c1 | 13.8 |
| O=C(Nc1ccc2ccccc2c1)N(CCCn1ccnc1)Cc1csc(-c2ccc(CNCc3ccccc3)cc2)n1 | 8.11 |
| COc1ccccc1CCNc1nc(C)cc(N[C@@H](Cc2ccccc2)C(=O)NCc2cccc(F)c2)n1 | 16.3 |
| O=C(CSc1nccn1C1CCCC1)Nc1cc(C(F)(F)F)ccc1Cl | 5.36 |
| c1csc(-c2ccc3c(c2)CC(NCc2c[nH]c4cnccc24)C3)c1 (configuration not stated) | 2.33 |

| SMILES | IFI [%] |
| --- | --- |
| COc1cc(C(=O)Nc2ccc3nc(N4CCN(C)CC4)cc(C)c3c2)cc(OC)c1OC | 0 |
| CO[C@H](C)[C@H](NC(=O)[C@H](CC(C)C)[C@H](CCC(F)(F)F)N(O)C=O)C(=O)Nc1nccs1 | 3.68 |
| CC(=O)Nc1ccc(CNC2Cc3ccc(-c4ccc(Cl)c(Cl)c4)cc3C2)cc1 (configuration not stated) | 16.1 |
| FC(F)(F)COc1ccc2ccccc2c1CCNCCCCNCCc1c(OCC(F)(F)F)ccc2ccccc12 | 23.4 |
| CCOc1ccc(C=CC(=O)Nc2ccc3nc(N4CCN(C)CC4)cc(C)c3c2)cc1OC | 5.44 |
| COc1ccc(NC(=O)c2ccc(Br)c(C)c2)cc1N1CCN(Cc2ccccc2)CC1 | -0 |
| Clc1cccc(C23N/C(=N\c4nc5ccccc5[nH]4)NC2(c2ccccc2)N/C(=N\c2nc4ccccc4[nH]2)N3)c1 (configuration not stated) | 3.62 |
| Cc1cc(Cl)c(S(=O)(=O)NC2CCCC2)cc1OCC(=O)NC1CCCCC1 | 8.93 |
| CS(=O)(=O)c1ccc2c(c1)CCN(CCC1CCC(NC(=O)c3cc4cccc(Br)c4[nH]3)CC1)CC2 (configuration not stated) | 7.59 |
| COc1ccc(CN2CCCC(N3CC4(OC3=O)c3ccccc3-c3ccccc34)C2)c(O)c1 (configuration not stated) | 1.57 |
| CN(C)c1c(CNCCCCCCNCc2ccc3ccccc3c2N(C)C)ccc2ccccc12 | 15.7 |
| Cc1c(F)cc(C(=O)NC2CC2)cc1-c1ccc2c(c1)c(C)nn2S(=O)(=O)c1cccs1 | 3.55 |
| COc1cc2nc(N3CC(C)N(C(=O)Cc4ccc(-c5ccccc5)cc4)C(C)C3)nc(N)c2cc1OC (configuration not stated) | 6.09 |
| O=S(=O)(Nc1ccc(CCN2CCC(N3CCCCC3)CC2)cc1)c1ccccc1C(F)(F)F | 3.28 |
| COc1ccccc1C1CCN(C2CCC(NC(=O)c3cc4ccccc4[nH]3)CC2)CC1 (configuration not stated) | 16.4 |
| C#CCOc1ccc2ccccc2c1CNCCCCCCNCc1c(OCC#C)ccc2ccccc12 | 14.1 |
| COc1ccc(C(=O)NC2CCN(c3ccnc4cc(Cl)ccc34)C2)cc1 (configuration not stated) | 3.08 |
| COc1cccc(CC(=O)NC2CCN(c3ccnc4cc(Cl)ccc34)C2)c1 (configuration not stated) | 1.54 |
| OC1CCCN(Cc2ccc(-c3ccc(-c4nc5ccccc5[nH]4)cc3)cc2)C1 (configuration not stated) | 5.63 |
| COc1c(C2CCN(CCCCNC(=O)c3noc(-c4ccc(C#N)cc4)n3)CC2)ccc2c1CCCC2 | 5.5 |
| CC(C)CCN(Cc1cncn1Cc1cccc(C(F)(F)F)c1)C(=O)c1ccccc1C#N | 2.63 |
| Cc1nc(-c2nc(NCc3ccc4c(c3)OCO4)ncc2-c2ccsc2)sc1C | 6.67 |

| SMILES | IFI [%] |
| --- | --- |
| CC(=O)N(C)c1cccc(C(=O)Nc2cccc(-c3ccc(-c4nc5cc(C(F)(F)F)ccc5[nH]4)cc3)c2)c1 | 7.02 |
| CC(C)Cn1c(Sc2ccc(C#N)c([N+](=O)[O-])c2)nnc1-c1cccs1 | 2.8 |
| O=C(Nc1ccc(F)c(C(F)(F)F)c1)N[C@H]1CCN(CCCCCNC(=O)C2CC2c2ccc(Cl)c(Cl)c2)C1 (some centres not stated) | 15.9 |
| CCc1cn(C)c2c(N3CCCC3=O)cc(C(=O)N[C@@H](Cc3ccccc3)[C@H](O)CNC3CCCCC3)cc12 | -0 |
| COc1ccc(CN2CCC(CN3CC4(OC3=O)c3ccccc3-c3ccccc34)C2)c(O)c1 (configuration not stated) | 5.56 |
| COc1ccccc1-n1ccnc1SCC(=O)Nc1cc(C(F)(F)F)ccc1Cl | 5.26 |
| CC(=O)c1ccc(NC(=O)C2c3ccccc3C(=O)N(CC(C)C)C2c2cccs2)cc1 (configuration not stated) | -0 |
| CCCN1CCN(CCCNc2c3ccccc3nc3ccccc23)CC1 | 2.96 |
| COc1cc(OC)cc(-c2nc3ccc(OCCN(C)C)c(C#N)c3[nH]2)c1 | 3.03 |
| COc1ccc(CC(=O)Nc2ccc(Nc3nc(C)cc(N(C)C)n3)cc2)cc1 | 3.92 |
| CC(=O)Nc1ccc(OCCCN(Cc2ccccc2OC(F)(F)F)c2ccc(C(F)(F)F)c(C#N)c2)c(Cl)c1 | 0 |
| CCCS(=O)(=O)c1nc(S(=O)(=O)c2ccc(Cl)cc2)c(N2CCCCC2)s1 | 6.52 |
| CO/C(=C\C=C\c1cc2cc(Cl)c(Cl)cc2[nH]1)C(=O)Nc1ccc(NCCN(C)C)nc1 | 9.92 |
| O=C(C=Cc1ccc(Cl)c(Cl)c1)NCCCCCN1CCCC(CCCNS(=O)(=O)c2cccc(C(F)(F)F)c2)C1 (configuration not stated) | 12.9 |
| COc1ccc(C(=O)N[C@@H](CC(C)C)C(=O)NC2CC[C@@H](C)N(C(=O)Nc3ccc(Cl)cc3)CC2=O)cc1OCCN1CCOCC1 (some centres not stated) | 6.25 |
| C[C@H](NC(=O)c1c(OC2CN(C(c3ccccc3)c3ccccc3)C2)c(-c2ccccc2)nc2ccccc12)C1CCCCC1 | 1.52 |
| O=C(NCC1COc2ccccc2O1)c1cnc2c(c1)nc(-c1c[nH]c(-c3ccccc3)n1)n2CCSCc1c(F)cccc1Cl (configuration not stated) | 1.5 |
| CCn1c(C(C)C)cc2c3c(N)nc(N)nc3ccc21 | 2.88 |
| CS(=O)(=O)c1cccc(-c2cnc3[nH]cc(-c4cccc(CCN)c4)c3c2)c1 | 8.74 |
| CC(C)(C)c1ccc(CNCC(C)(C)c2nc(-c3ccnc(N)n3)c(-c3ccc(Cl)c(O)c3)[nH]2)cc1 | 17.1 |
| COc1ccc2nccc([C@@H](O)CN3CCC(NCc4cc5ccccn5n4)CC3)c2c1 | 1.46 |
